The labels stand for the following.
B1: chrX:71025408:71025409:-_ENSMUSG00000002010_ENSMUST00000052761|mus_hu|FALSE|FALSE (ssRNA)
RNA: GGGAGUUCUACAGUCCGACGAUCAAACACCGCGUACACAUGGCCAUAGUUGGCCCCAGCCACAAGGCCUGGGCCCCCGACCAGUCCCGCGCAGACAUUGUUGACGAUGUUGCCAUAGAGAUUGGGCAUCACCAUGACAUCAAACAACAGAGGAUUGAGCAUCA
B2: chr5:137527996:137527997:-_ENSG00000094880_ENST00000394886|hu_mus|motif|central (ssRNA)
RNA: GGGAGUUCUACAGUCCGACGAUCUUCUCCUAAGGCAACCAGCAUGCGAGAAUCAUUGGGACGAAGCUGGUGGGCCCGUCGGUAAUAAUAAAGGCAAUAAAAUGGCAUUUUAAGGAUUUCGUAAGUCUGCCCAAGGCCAUACCACAACAGAGGAUUGAGCAUCA
B3: chr1:196642912:196642913:+_ENSMUSG00000026640_ENSMUST00000027952|mus_mus|FALSE|FALSE (ssRNA)
RNA: GGGAGUUCUACAGUCCGACGAUCAAUAGGUACAUGAUAAUAUAUUAGAUAACAAAACCCCGCUUUAUUGGAACAUUUUAAAUACUUCAUUUUCUUAUUAUUUCAUAACACCUGUAAAAACAACAAAACCAGACAACCAGCAUUCAACAGAGGAUUGAGCAUCA
B4: chrX:12171913:12171914:+_ENSMUSG00000031007_ENSMUST00000033313|perfect_dup|motif|central (ssRNA)
RNA: GGGAGUUCUACAGUCCGACGAUCCCUGGUAUAGGCCAAUUUCCAUUUCGGAAAACAACAGACCCUGGUGAUUUUAAUAUACGGAACUCGUUCCCCAAAACACCCGCCACCAACGCCAGGAGCACGACAAACACAGCCAUGGUGCAACAGAGGAUUGAGCAUCA
B5: chrX:71549762:71549763:+_ENSMUSG00000019087_ENSMUST00000019231|mus_mus|mus_mus_mus_hu_False|8_38 (ssRNA)
RNA: GGGAGUUCUACAGUCCGACGAUCAAACCCGUGUACUUCUUAUUGUUAGCACAACAUCACCAGAAAACGAUAACGACAGCCAAGCAGGACAGACAGUCAAGUAGUCUUUCCACACUCCCAAACUCAGAGGAACCUCAAACCUUACAACAGAGGAUUGAGCAUCA
B6: 55033538_55033658_1353_3pUTR_ENSG00000169188_ENST00000374987|human|control|control (ssRNA)
RNA: GGGAGUUCUACAGUCCGACGAUCCUUCUCAUCUUUGGCUUCUGAAGUCUUGGCCUGCCCCUUCACCACUUUGGCCACUGCCUUCUCUUCUGGAGUCUUCGGGGUCAUGAGGGCGCUCAUCAGUGGUAGGCUAGGCAGCUCUAUCAACAGAGGAUUGAGCAUCA
B7: chr9:136227202:136227203:+_ENSG00000148291_ENST00000371964|hu_mus|FALSE|FALSE (ssRNA)
RNA: GGGAGUUCUACAGUCCGACGAUCCUCUCUAAAGCUCUUCUCUUCUGAAUGCUCCGGCUUCUCAUCCUGUUGGUCUGUCAGAAAGUCUUCAGGAGUGUCAUCGUUCUUAGGCUUGCCUAGUUCUCUCUUUGUGAACAGCUCAGGCAACAGAGGAUUGAGCAUCA
B8: 14125765_14150144_1339_3pUTR_ENSG00000147862_ENST00000380959|human|control|control (ssRNA)
RNA: GGGAGUUCUACAGUCCGACGAUCCUUGAUCUCUUUCGUGCCAUGUUCGACUUCCAGCAGCUGGUGAACUUGGAGAGGGGUAAAAGUCUCCUGUAGGACUUGGUUCCAUAUUUUCAUCUAUGGAUAUAGUUUUGGGUCUUUUGCCAACAGAGGAUUGAGCAUCA
B9: chr4:57314706:57314707:+_ENSG00000128050_ENST00000264221|hu_mus|hu_hu_hu_mus_True|98_108 (ssRNA)
RNA: GGGAGUUCUACAGUCCGACGAUCCAGUAUUUCAAAUAUAGCCUGUGUGGCAUGACUCAUGAUGUCCACUUCAGUCUGCCCUAUAACAAGGCCAGCAAAACAGAAUUUUGCAGCAAUGAGUUGCUCCUCAGACCACUGUGGAUCCAACAGAGGAUUGAGCAUCA
B10: chr1:213186598:213186599:-_ENSG00000174606_ENST00000366962|hu_mus|motif|central (ssRNA)
RNA: GGGAGUUCUACAGUCCGACGAUCAAACUGCGUUCCAGACUCAAACAGAAAAGGUGGUCUACAGUUCAAUGAGAAAUGCCUGCGGCUGAAGUAUGGGUAAGGCGCACGGGAGUAAUGUCCUGGCCACCUCAGACAACUGGAAAUCAACAGAGGAUUGAGCAUCA
B11: chr5:128440902:128440903:+_ENSG00000066583_ENST00000173527|hu_mus|hu_hu_hu_mus_True|38_78 (ssRNA)
RNA: GGGAGUUCUACAGUCCGACGAUCUUGAACGGUGCUGCCAAGUCCUUUGGGGUAUUGUUCUGUUACAAUAACUGGAAUCCCUAAGAUCCGAGCUCCUUGCAACAAUCUCUGUCCCACACUAAUGAUGUCCCCAAAGUAUUUGAUCAACAGAGGAUUGAGCAUCA
B12: chr7:54825262:54825263:-_ENSG00000132432_ENST00000352861|hu_hu|hu_hu_hu_mus_False|58_78 (ssRNA)
RNA: GGGAGUUCUACAGUCCGACGAUCCUGCCGGCUGGGCUCCACAAACUGCAUUACCUGCAUGACUGCCGUUGGAUGGCACACCUAAAACGUAGAGACACGUAGCUCAGGAGAGAACCGAGCCCAACGGAACCGGAAGCUGGCAACCAACAGAGGAUUGAGCAUCA
B13: chr4:76721835:76721836:+_ENSG00000138768_ENST00000264904|hu_mus|hu_hu_hu_mus_True|1_8 (ssRNA)
RNA: GGGAGUUCUACAGUCCGACGAUCGUUUGGCUGGGGUUUCUGAGACGCUCUGGAAUAUAACUCAUGUUUGCUAAUAAAUCCUAGUUUCUCUAUGAAAUUCUCUUUGCCAAUCCUCUUCUCUAUUAGUGUUUUAGCUUCUCUUUCCAACAGAGGAUUGAGCAUCA
B14: chr12:39763582:39763583:-_ENSG00000139116_ENST00000544797|hu_mus|hu_hu_hu_mus_False|1_108 (ssRNA)
RNA: GGGAGUUCUACAGUCCGACGAUCCUCUAAGAAUUGGGCAUUCACUUUGAAUUCAGGAGGGGGCAGCCCGUUUUUAAUCGCUGAGGUCUUUUUCUCAUCAAUACUCUUGAACAGGUGUCUAACAGCACGAGAGAUGAUACCCAGCAACAGAGGAUUGAGCAUCA
B15: 134309471_134309591_2189_3pUTR_ENSG00000028839_ENST00000237264|human|control|control (ssRNA)
RNA: GGGAGUUCUACAGUCCGACGAUCGAACAUUGUGUUGGAAUAUUGUCCCCAUUAAGUUUCUCCUGAGAAGCUAAUUGGACUCUCCACUCAGCUUUAUUUCUAGGUAUAAUCACUGUUGGUUACACUAAACUCCUAAACCUAAAUCAACAGAGGAUUGAGCAUCA
B16: chr1:182792627:182792628:+_ENSMUSG00000038806_ENSMUST00000038091|mus_hu|FALSE|FALSE (ssRNA)
RNA: GGGAGUUCUACAGUCCGACGAUCGUCUGUAUUCACUACUCUCGCCCUCUGAGAACCACUGGGAAAUUUGGCUGCCAUCUCGACACCAUUGCUACCAAUUUUUGGAGCAUGGAAACCCAUUCCUGAAGUGCUUGGUGCUUCUUCCAACAGAGGAUUGAGCAUCA
B17: chr17:60770872:60770873:+_ENSG00000011028_ENST00000303375|hu_hu|hu_hu_hu_mus_True|38_68 (ssRNA)
RNA: GGGAGUUCUACAGUCCGACGAUCUCUUUAAAAAAAAAAAAAAAAAGACAAACAAUAAUAGCACAUUAUUUAAAAAAAGAACUACAAUAGAGGGUCCAUGUCUUCGAUUUGUUCACAUCGUCCUGCACUGGGACACGGGGACUGCAACAGAGGAUUGAGCAUCA
B18: 31380325_31381241_1545_CDS_ENSG00000196792_ENST00000355683|human|control|control (ssRNA)
RNA: GGGAGUUCUACAGUCCGACGAUCCUGUUCUCCAUUAGAACUAAUAGCUAAUGACAGAACAGGGCCGAUGUGGGCCCUAAAUGUGUAGAUAGGCUCUACAUCUAAAGAGGCACUCUUUUUGGCAGGAACUGUUUUUUGCAGGUUCAACAGAGGAUUGAGCAUCA
B19: chr16:29586362:29586363:+_ENSMUSG00000038084_ENSMUST00000160597|mus_hu|FALSE|FALSE (ssRNA)
RNA: GGGAGUUCUACAGUCCGACGAUCGCCACCCCCAACAGCCGAUCCUAGUAUGAGAUAGCGAAGUUUUAAGAGUCUCGUAGCUAAUCUUGCUGGCCAAAAAUUCCUGCGAGGCUGGUAGCCAUAUUUAAUUGGAGAGAAUUUCAGCAACAGAGGAUUGAGCAUCA
B20: 134633431_134633551_1114_CDS_ENSMUSG00000042423_ENSMUST00000048896|mouse|control|control (ssRNA)
RNA: GGGAGUUCUACAGUCCGACGAUCCUCAUAGAAGCGUGGUGGCCUGGCCAGGCGUGGGGGCCCUGCCAACCAGGUUGGCUCUGGGAAGCCUGCACAGCGCUCUGGCAGGCUAGGGCCAAGAAAUGGGGGUGGCCGAGGCCUCUCCAACAGAGGAUUGAGCAUCA
B21: chr4:106721038:106721039:+_ENSMUSG00000061887_ENSMUST00000030367|mus_mus|FALSE|FALSE (ssRNA)
RNA: GGGAGUUCUACAGUCCGACGAUCUUUCCUUUUUUUAAAGAAGAAAGCAAAGAGGUUGAUUGGGGUGGGGCAUAGGGCUUGCUAGAAGCUUCCAUUAAAAAAAAAAUUCCCCCAAAGAACACCCCCCACCCCGGGAAAAAAAAACAACAGAGGAUUGAGCAUCA
B22: 36030888_36031168_1329_CDS_ENSG00000197122_ENST00000358208|human|control|control (ssRNA)
RNA: GGGAGUUCUACAGUCCGACGAUCGAUGGGGAAUUUGGCACCUUGCCGCGCCGUGUACUCAUUGUCUUCAAUGAGCCGAGCCAGCCCAAAGUCCGCCACUUUGCACACCAGGUUCUCUCCCACCAGGAUGUUGGCUGCACGAAGCAACAGAGGAUUGAGCAUCA

From article PMC12136788 come the findings set out here.

This is one part of the list.

For the test, the target named is T1, UNK ZnF1-3 (human, UniProt Q9C0B0 31-174).
T1 sequence: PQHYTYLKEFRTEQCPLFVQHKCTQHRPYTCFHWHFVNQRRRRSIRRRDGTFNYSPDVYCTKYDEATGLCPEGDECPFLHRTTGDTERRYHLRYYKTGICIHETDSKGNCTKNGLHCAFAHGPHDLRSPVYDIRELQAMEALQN
The test can be described thus: nsRBNS (natural sequence RNA bind-n-seq); RBNS binding buffer (assumed for nsRBNS): 25 mM Tris pH 7.5, 150 mM KCl, 3 mM MgCl2, 0.01% Triton X-100, 500 ug/ml BSA, 20 U/ml SUPERase-In, 4 C; UNK is unkempt and MSI1 is Musashi-1; names of the RNAs are library labels; protein concentration not given here; high values mean tight binding.
B1 registered a binding signal of 0.819 enrichment R.
In the case of B2 it was 0.923 enrichment R; in that of B3, 1.53 enrichment R; in that of B4, 1.44 enrichment R.
To B5 belongs 1.48 enrichment R; to B6, 0.621 enrichment R.
To B7 belongs 0.495 enrichment R; to B8, 0.652 enrichment R.
As to B9, the binding signal turned out to be 0.935 enrichment R.
To B10 belongs 1.24 enrichment R; to B11, 0.695 enrichment R; to B12, 1.23 enrichment R.
To B13 belongs 0.46 enrichment R.
In the case of B14 it was 1.19 enrichment R.
Turning to B15, the binding signal stood at 0.637 enrichment R.
To B16 belongs 0.698 enrichment R.
In the case of B17 it was 2.71 enrichment R.
Consider B18, for which the binding signal is 1.03 enrichment R.
In the case of B19, the binding signal worked out at 1.52 enrichment R.
In the case of B20 it was 0.637 enrichment R; in that of B21, 1.42 enrichment R.
In the case of B22 it was 1.01 enrichment R.
